Laboratory results reported in the supplement of paper PMC9334596.
Several values for one entry are separate records, joined by “and”; a condition that tells them apart may be missing. Equal entries are not always repeated. In all, about 5,300 compounds were measured (“PER2::LUC luminescence relative to vehicle control”: median about 0.96, highest 2% from about 1.3 on). This is one part of the list.

System: mPer2Luc MEF
Assay: PER2::LUC luminescence relative to vehicle control (fold of vehicle); higher = higher PER2::LUC reporter signal
Conditions: 10 µM
In short: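 In 384-well plates, ~3000 mPer2Luc reporter mouse embryonic fibroblasts per well were cultured in DMEM with 10% FBS at 37 °C and 5% CO2 for 48 h before compounds from commercial libraries were added at 10 μM. ONE-Glo luciferase readings were taken 24 h and 30 h after treatment. Each value is PER2::LUC luminescence given as fold of vehicle control.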

Structure (SMILES)	PER2::LUC luminescence (time after treatment 24 h)	PER2::LUC luminescence (time after treatment 30 h)
CCOC(=O)C1(CCCCCCOc2ccc(Cl)cc2)CO1 (configuration not stated)	0.887	0.806
COc1ccc2c(c1)c(CC(=O)O)c(C)n2C(=O)c1ccc(Cl)cc1	1.03 and 0.97	0.935 and 0.986
C/C1=C/CCC(C)(O)/C=C\C(C(C)C)C(OC(=O)c2ccc(O)cc2)C1 (configuration not stated)	1.06	1.07
CN1CCC(=C2c3ccccc3CCc3cccnc32)CC1	0.974 and 0.872	0.896 and 0.655
Nc1nc2ccc(OC(F)(F)F)cc2s1	1.26 and 0.999	1.5 and 1.06
Oc1cc(O)c2c(c1)O[C@H](c1ccc(O)c(O)c1)[C@H](O)C2	0.958 and 1.06	0.909 and 1.2
C(=C\c1ccccc1)/CN1CCN(C(c2ccccc2)c2ccccc2)CC1	1.1 and 0.959	1.01 and 0.887
COc1ccc(-c2cc(=O)c3c(O)c(OC)c(O[C@@H]4O[C@H](CO[C@@H]5O[C@@H](C)[C@H](O)[C@@H](O)[C@H]5O)[C@@H](O)[C@H](O)[C@H]4O)cc3o2)cc1	0.951	1.02
CCCCCCCCOC(=O)C=Cc1ccc(OC)cc1	1.04	1.09
O=C(C1CCCCC1)N1CC(=O)N2CCc3ccccc3C2C1 (configuration not stated)	1.2	0.952
O=C(Nc1ccc(C(F)(F)F)cn1)c1cccc2cccnc12	1.02	1.03
C[C@@H]1CCO[C@H]2Cn3cc(C(=O)NCc4ccc(F)cc4F)c(=O)c(O)c3C(=O)N12	1.35 and 1.15	1.4 and 1.2
NCC(O)COc1cccc2ccccc12 (configuration not stated)	0.637	0.588
C[C@]1(O)C[C@@H](c2nc(-c3ccc4ccc(-c5ccccc5)nc4c3)c3c(N)nccn32)C1	0.417	0.497
CC(C)=CCc1c(O)ccc(C(=O)/C=C/c2ccc(O)cc2)c1O	0.904	0.903
O=C(O)c1cc(/N=N/c2ccc(O)c(C(=O)O)c2)ccc1O	0.791 and 0.979	0.974 and 0.725
CCCCCCCCCCCCCCCC(=O)OC(CC(=O)O)C[N+](C)(C)C (racemic)	0.768	1.19
COc1ccc2c(c1OC)C(=O)O[C@@H]2[C@H]1c2c(cc3c(c2OC)OCO3)CCN1C (racemic)	0.87	0.844
COc1ccc2c(c1OC)C(=O)O[C@@H]2[C@H]1c2c(cc3c(c2OC)OCO3)CCN1C	0.864	0.919
CCc1c(C(=O)NNC(=O)[C@@H](O)c2cc(F)cc(F)c2)ccc(O)c1C	1.02	1.09
CC(=O)NCCCS(=O)(=O)O	0.808	1.2
CN1CCN(C2CCC(n3cc(-c4ccc(Oc5ccccc5)cc4)c4c(N)ncnc43)CC2)CC1 (configuration not stated)	0.091	0.137
CCCC(CCC)C(=O)Nc1ccn([C@@H]2O[C@H](CO)[C@@H](O)C2(F)F)c(=O)n1	0.881	0.735
O=C(Nc1ccccc1-c1cn2c(CN3CCNCC3)csc2n1)c1cnc2ccccc2n1	0.205	0.413
CCOC(=O)O[C@]1(C(=O)COC(=O)CC)CC[C@H]2[C@@H]3CCC4=CC(=O)C=C[C@]4(C)[C@H]3[C@@H](O)C[C@@]21C	0.534	0.967
CC(C)C[C@H](NC(=O)[C@H](O)[C@H](N)Cc1ccccc1)C(=O)O	0.99	0.902

Structure (SMILES)	PER2::LUC luminescence (time after treatment 24 h)	PER2::LUC luminescence (time after treatment 30 h)
C=C1c2c(Cl)ccc(O)c2C(=O)C2=C(O)[C@]3(O)C(=O)C(C(N)=O)=C(O)[C@@H](N(C)C)[C@@H]3[C@@H](O)[C@H]12.O=C(O)c1cc(S(=O)(=O)O)ccc1O	0.648	0.771
CNC(=O)c1cc(Oc2ccc(NC(=O)Nc3ccc(Cl)c(C(F)(F)F)c3)c(F)c2)ccn1	0.831 and 0.772	0.697 and 0.731
C=C[C@@](C)(O)CC[C@H]1C(=C)CC[C@H]2C(C)(C)CCC[C@]12C	0.946	0.911
CC(C)(C)NCC(O)COc1cccc2c1CCC(=O)N2 (configuration not stated)	1.07	0.822
CC(C)C[C@H](N)C(=O)N[C@H](C(=O)N[C@H](C(=O)N[C@@H](Cc1ccc(O)cc1)C(=O)N1CCC[C@H]1C(=O)N[C@@H](Cc1c[nH]c2ccccc12)C(=O)N[C@H](C(=O)N[C@@H](CCC(N)=O)C(=O)N[C@@H](CCCN=C(N)N)C(=O)O)[C@@H](C)O)C(C)C)C(C)C	0.942	0.916
N#C/C(=C\c1ccc(-c2cc(Cl)ccc2Cl)o1)C(=O)Nc1cccc2ncccc12	1.19	1.2
O=C(CCc1ccc(O)cc1)c1c(O)cc(O)cc1OC1OC(CO)C(O)C(O)C1O (configuration not stated)	1.02	0.948
CN(C)CC(=O)Nc1ccc2[nH]c(=O)c3ccccc3c2c1	0.918 and 0.897 and 0.804	0.852 and 0.813
C/C=C1\C(=O)C[C@H]2[C@@H]3CCC4=CC(=O)CC[C@]4(C)[C@H]3CC[C@]12C	0.65	0.646
CN(C)CCN1C(=O)c2ccccc2N(C)c2ccccc21	1.01	0.99
COc1ccc(OC)c(C(O)CNC(=O)CN)c1 (configuration not stated)	1.09	1.07
CC(S)C(=O)NCC(=O)O (configuration not stated)	1.24	0.776
CNCc1ccc(-c2cc(-c3nc(-c4ccc(S(=O)(=O)C(C)C)cc4)cnc3N)on2)cc1	0.478	0.513
C=CC(C)(O)CCC1C(=C)CC(OC(C)=O)C2C(C)(C)CCCC12C (configuration not stated)	0.989	1.01
CN1CCN(CCCN2c3ccccc3Sc3ccc(C(F)(F)F)cc32)CC1	0.58 and 0.638	0.825 and 0.649
C=CC(=O)Nc1cc2c(Nc3ccc(F)c(Cl)c3)ncnc2cc1OCCCN1CCOCC1	0.311 and 0.162	0.408 and 0.174
O=C(NCc1ccccc1)c1csc(Nc2ccncn2)n1	0.862	0.811
COC(=O)C[C@H]1C(C)(C)C2(O)OC34CC2C(=O)[C@]1(C)C3CC[C@]1(C)C4=CC(=O)O[C@H]1c1ccoc1 (some centres not stated)	0.882	0.884
CC(C)NCC(O)COc1ccccc1-n1cccc1 (configuration not stated)	0.777	0.737
Cn1c(=O)c2nc(C3CCCC3)[nH]c2n(C)c1=O	0.89	1.13
COc1ccc2cc(-c3cc(-c4cc(Cl)cc(Cl)c4)nn3[C@@H](C)c3ccc(C(=O)NCCC(=O)O)cc3)ccc2c1	1.06	0.976
OC(CNCC(O)C1CCc2cc(F)ccc2O1)C1CCc2cc(F)ccc2O1 (configuration not stated)	0.637 and 0.59	0.652 and 0.656
C=CCN1CCc2nc(N)sc2CC1	1.01	0.887
O=C(CCc1ccc(O)cc1)c1c(O)cc(O)cc1O	1.14	1.11
CC[C@H](C)[C@H](N)C1=N[C@H](C(=O)N[C@@H](CC(C)C)C(=O)N[C@H](CCC(=O)O)C(=O)N[C@H](C(=O)N[C@H]2CCCCNC(=O)[C@H](CC(N)=O)NC(=O)[C@@H](CC(=O)O)NC(=O)[C@H](Cc3cnc[nH]3)NC(=O)[C@@H](Cc3ccccc3)NC(=O)[C@H]([C@@H](C)CC)NC(=O)[C@@H](CCCN)NC2=O)[C@@H](C)CC)CS1	0.828	0.981
